# Measured values as given in paper PMC4336329 (PLoS ONE, 2015).
# Hit rate of the full screen: of about 310,000 compounds, about 14,000 (4.5%) showed an effect of 50% or more. The effect is printed as a negative number. The list shows a part of the results.
# Target: human ether-à-go-go-related gene (hERG) potassium channel (human, UniProt Q12809)
# Test: primary screen, population patch clamp on CHO cells stably expressing hERG
# 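Further: peak tail current of the secondary pulse compared with the same well before compound.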
# Chain of human ether-à-go-go-related gene (hERG) potassium channel (Q12809 whole entry, looked up): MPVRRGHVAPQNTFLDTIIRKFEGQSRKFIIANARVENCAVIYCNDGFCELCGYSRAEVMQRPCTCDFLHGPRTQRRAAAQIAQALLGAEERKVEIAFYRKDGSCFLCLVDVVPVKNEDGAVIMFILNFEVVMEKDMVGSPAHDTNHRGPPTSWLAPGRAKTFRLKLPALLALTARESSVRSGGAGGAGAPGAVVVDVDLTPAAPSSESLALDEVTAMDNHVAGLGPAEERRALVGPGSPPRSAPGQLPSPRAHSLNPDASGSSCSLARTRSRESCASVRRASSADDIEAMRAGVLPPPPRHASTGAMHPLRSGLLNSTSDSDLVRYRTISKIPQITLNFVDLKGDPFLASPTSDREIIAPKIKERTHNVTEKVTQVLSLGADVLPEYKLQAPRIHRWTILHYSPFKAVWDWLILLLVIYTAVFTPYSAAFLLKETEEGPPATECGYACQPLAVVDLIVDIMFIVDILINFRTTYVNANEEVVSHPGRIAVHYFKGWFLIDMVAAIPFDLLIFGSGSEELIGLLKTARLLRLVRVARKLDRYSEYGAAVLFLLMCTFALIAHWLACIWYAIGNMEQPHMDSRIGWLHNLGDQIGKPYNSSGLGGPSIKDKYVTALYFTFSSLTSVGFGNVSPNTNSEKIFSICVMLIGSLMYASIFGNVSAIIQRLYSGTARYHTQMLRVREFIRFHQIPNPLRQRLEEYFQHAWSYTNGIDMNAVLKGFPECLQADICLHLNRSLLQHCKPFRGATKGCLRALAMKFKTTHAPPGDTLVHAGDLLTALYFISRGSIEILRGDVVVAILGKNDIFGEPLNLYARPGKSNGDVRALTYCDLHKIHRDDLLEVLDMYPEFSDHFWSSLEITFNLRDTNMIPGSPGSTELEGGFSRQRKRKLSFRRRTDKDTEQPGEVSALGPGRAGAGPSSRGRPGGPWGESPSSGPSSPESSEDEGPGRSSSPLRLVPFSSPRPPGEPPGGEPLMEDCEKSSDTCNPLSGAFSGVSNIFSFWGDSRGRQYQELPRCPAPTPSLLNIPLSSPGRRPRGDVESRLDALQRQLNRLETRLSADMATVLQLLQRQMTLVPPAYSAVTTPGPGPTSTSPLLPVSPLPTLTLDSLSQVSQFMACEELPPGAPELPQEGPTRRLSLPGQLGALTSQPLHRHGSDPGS
row,Compound,"hERG current change (%, negative = inhibition) at 10uM [%]"
1,COCc1cc(CN2CCN(C)CC2)c(O)c2ncccc12,22.7
2,COc1cccc(NC(=O)CSc2nnc(-c3cc(C)[nH]n3)n2N)c1,17.8
3,Cc1ccc(OCC(=O)NCCNC(=O)c2cnccn2)cc1,4.5
4,COc1cc(NC(=S)N2CCN(C(=O)C3CCCO3)CC2)c(OC)cc1Cl (centres unmarked),-4.57
5,COc1ccc(N2CCN(C(=O)c3ccc(CS(=O)Cc4ccc(C)cc4)o3)CC2)cc1 (centres unmarked),-18.3
6,COc1ccc(-c2cc(C(=O)NNC(=S)NC(=O)c3c(-c4ccccc4)noc3C)[nH]n2)cc1,36.8
7,O=C(CCNC(=O)c1ccccc1)Nc1ccc(F)c(Cl)c1,7.79
8,O=C1CCC(=O)N1CC(O)COc1ccccc1 (centres unmarked),4.87
9,O=C1/C(=C/c2cccnc2)SC(=S)N1c1ccc(F)cc1,36.2
10,COc1ccccc1CNC(=O)C1CCCN(S(=O)(=O)c2cccc3nsnc23)C1 (centres unmarked),-9.08
11,O=C(CSc1nnc2ccccn12)NCCN1C(=O)CSC1=O,21.3
12,Cc1ccc(NC(=O)N2CCCC2C(=O)NCc2ccc(Cl)cc2)cc1 (centres unmarked),1.19
13,CC1CC(C)(C)CC2(C1)NC(=O)N(CC(=O)NCC(c1ccco1)N1CCCCC1)C2=O (centres unmarked),-48.6
14,COC(=O)c1ccc(Nc2c([N+](=O)[O-])ccc3nonc23)cc1,15.6
15,O=C(CCN1CCCCC1)Nc1ccc(Cl)cc1C(=O)c1ccccc1,-72.6
16,O=C(NC(=S)Nc1cccc2ncccc12)c1ccccc1,10.9
17,CC(Oc1ccccc1F)C(=O)NN (centres unmarked),10.5
18,Cc1cc(NC(=O)COC(=O)CCNS(=O)(=O)c2cccc(C(F)(F)F)c2)no1,10.6
19,C=CCc1ccccc1OCCn1nnc2ccccc21,8.75
20,COCCCn1c(SCC(=O)Nc2ccc3c(c2)OCCO3)nnc1-c1ccoc1C,-5.98
21,Fc1cccc(Cl)c1CSc1ccc(-c2cccnc2)nn1,-68.9
22,COc1cc(/C=C2\SC(=S)N(NC(=O)c3ccc(O)c(OC)c3)C2=O)ccc1O,16.6

row,Compound,"hERG current change (%, negative = inhibition) at 10uM [%]"
1,COc1ccc(-c2nc(CS(=O)CC(=O)NCc3cccnc3)c(C)o2)cc1 (centres unmarked),2.52
2,CCOC(=O)c1c(-c2ccc(C)c(C)c2)csc1NC(=O)C1CC=CCC1C(=O)O (centres unmarked),-24.1
3,CCCN(CCC)C(=O)C1c2ccccc2Oc2ccccc21,10.3
4,Cc1cc(C)cc(OCC(=O)Nc2cc(NC(=O)COc3cc(C)cc(C)c3)cc(C(=O)O)c2)c1,15.2
5,COc1ccccc1/C=C/C(=O)NCC(=O)N/N=C/c1ccccc1,2.05
6,Cc1cccc(NC(=O)NCC2CC2)c1,4.74
7,COc1ccc(C(=O)CSc2nnc(CNC(=O)c3ccccc3)n2C)cc1,7.02
8,O=C(/C=C/c1ccc2c(c1)OCCO2)c1ccccc1,-5.04
9,CCc1ccc(NC(=O)Cn2nc(C(F)(F)F)c3c2CCC3)cc1,3.82
10,CCCNC(=O)c1ccccc1NC(=O)c1cccc(-n2cnnn2)c1,-22.3
11,CCOc1ccccc1NC(=O)CSc1n[nH]c(=O)n1-c1ccccc1,12.6
12,CC(=O)Nc1ccc(C(=O)NCC(=O)OCc2ccccc2F)cc1,3.57
13,CCc1nnc(NC(=O)c2ccc(S(=O)(=O)N3CCCC(C)C3)cc2)o1 (centres unmarked),11.4
14,O=C(COc1ccc(S(=O)(=O)NCc2ccccc2)cc1Cl)NCc1ccncc1,-15
15,COc1cc(OC)cc(C(=O)NC2CCSc3ccccc32)c1 (centres unmarked),10.7
16,O=C(N/N=C/c1ccc(O)cc1)c1cc(C23CC4CC(CC(C4)C2)C3)[nH]n1,-3.27
17,Cc1nc(NS(=O)(=O)c2cccs2)c2c3c(sc2n1)CCC3,3.8
18,CN(C)c1ccc(NC2=C(Cl)C(=O)c3ccccc3C2=O)cc1,15.2
19,C=CCSc1nc2c(cnn2-c2ccc(C)c(C)c2)c(=O)[nH]1,-11.3
20,CC(C)Oc1ccc(S(=O)(=O)N2CCOCC2)cc1NC(=O)C1=COCCO1,2.7
21,Cc1cccc(N2CCN(S(=O)(=O)c3ccc4c(c3)NC(=O)C(C)S4)CC2)c1C (centres unmarked),-2.54
22,O=C(O)CCCC(=O)N1N=C(c2ccccc2)CC1c1ccc2nccnc2c1 (centres unmarked),2.35
